The campaign covered roughly 270,000 compounds. About 5,800 (2.1%) were called active. The inconclusive results got no clear call from the source; some entries with a clear call stand among them for comparison. Calls follow the shape of the dose curve; as a rule, active = well fitted inhibition curve with a large enough effect; inconclusive = small, poorly fitted or top-dose-only effect; inactive = flat fitted curve, though single readings scatter. Potencies of inconclusive entries are doubtful fits and often do not repeat.
target: Microtubule-associated protein tau (Homo sapiens) (UniProt P10636); assay: qHTS for Inhibitors of Tau Fibril Formation, Thioflavin T Binding; conditions: recombinant tau K18 P301L (four-repeat tau fragment), heparin-induced fibrillization, ThT fluorescence; series mostly up to 57.4 µM; also: nearly all actives have a fitted effect of over 55% in size
Outline: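 Aggregation was driven by heparin (20 uM final) acting on recombinant tau […] bearing P301L in 100 mM sodium acetate pH 7; fibrils were detected with Thioflavin T.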
Potency is read from the fitted curve at half-maximal effect; tags tell the direction and shape of the fitted curve.

Chain of UniProt P10636 (P10636 whole entry, looked up, the tested form may be a part): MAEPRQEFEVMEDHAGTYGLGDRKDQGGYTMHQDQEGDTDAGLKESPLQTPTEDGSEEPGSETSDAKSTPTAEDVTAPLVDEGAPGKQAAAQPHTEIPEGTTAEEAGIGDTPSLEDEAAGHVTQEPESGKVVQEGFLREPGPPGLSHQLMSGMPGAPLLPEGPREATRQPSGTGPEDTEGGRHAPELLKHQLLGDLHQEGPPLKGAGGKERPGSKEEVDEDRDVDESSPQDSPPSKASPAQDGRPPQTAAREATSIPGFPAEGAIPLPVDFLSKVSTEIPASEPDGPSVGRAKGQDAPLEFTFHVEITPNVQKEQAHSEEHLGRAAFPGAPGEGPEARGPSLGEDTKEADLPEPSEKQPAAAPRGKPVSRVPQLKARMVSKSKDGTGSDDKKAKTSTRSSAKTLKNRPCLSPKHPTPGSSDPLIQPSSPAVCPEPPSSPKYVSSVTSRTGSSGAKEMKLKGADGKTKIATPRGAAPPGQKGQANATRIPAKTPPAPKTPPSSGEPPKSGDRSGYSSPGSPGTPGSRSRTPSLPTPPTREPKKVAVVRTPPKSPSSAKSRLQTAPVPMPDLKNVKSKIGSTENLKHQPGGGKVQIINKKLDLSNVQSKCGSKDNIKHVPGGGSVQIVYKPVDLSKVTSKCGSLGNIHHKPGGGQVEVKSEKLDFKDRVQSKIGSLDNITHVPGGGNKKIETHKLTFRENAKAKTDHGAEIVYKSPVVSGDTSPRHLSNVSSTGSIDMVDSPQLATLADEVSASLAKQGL

SMILES	Potency
Cc1ccc(N2CCN(C(=O)NCc3noc4ccc(C)cc34)CC2)c(C)c1	inconclusive: 12.6 µM [inhibitor, partial curve]
CCN1CCC2(CC1)C(C#N)=C(N)Oc1c2sc2nc(C)cc(C)c12	inconclusive: 22.4 µM [inhibitor, partial curve]
COc1ccc(-n2c(N)c(C(=O)NCC3CCCO3)c3nc4ccccc4nc32)c(OC)c1 (configuration not stated)	active: 28.2 µM
O=[N+]([O-])c1cc(C(F)(F)F)ccc1Sc1ccc2ccccc2n1	inactive
Cc1cccc(NC(=O)c2ccc(CNS(=O)(=O)c3ccc4c(c3)C(C)(C)C(=O)N4C)cc2)c1	inactive
O=C(CCC1N=C2c3ccccc3N=C(SCC(=O)Nc3ccc(F)cc3)N2C1=O)NCc1cccs1 (configuration not stated)	inactive
COc1cccc2cc(C(=O)C3=C(O)C(=O)N(CCCN(C)C)C3c3ccncc3)oc12 (configuration not stated)	inactive
CC[C@@H]1C=C(C)C[C@H](C)C[C@H](OC)[C@H]2O[C@@](O)(C(=O)C(=O)N3CCCC[C@H]3C(=O)O[C@H](/C(C)=C/[C@@H]3CC[C@@H](O)[C@H](OC)C3)[C@H](C)[C@@H](O)CC1=O)[C@H](C)C[C@@H]2OC	inconclusive: 12.6 µM [inhibitor, partial curve]
Cc1nc2ccc(C(=O)OCc3ccccc3Br)cc2nc1C	inconclusive: 7.94 µM [inhibitor, partial curve]
CCc1ccc(N2CSC3=C(C#N)C(c4cccs4)CC(=O)N3C2)cc1 (configuration not stated)	active: 12.6 µM
Cc1ccc2c(c1)-c1nc3ccccc3cc1C2=NC1CCCCC1	inconclusive: 28.2 µM [inhibitor, partial curve]
CCN(CC)C(=O)CSCc1cnn(-c2ccccc2)c1-n1cccc1	inconclusive: 25.1 µM [inhibitor, partial curve, poor fit]
Cc1ccc(C(=O)N(c2ccc(C)cc2)S(=O)(=O)c2ccc(Cl)cc2)cc1	inconclusive: 28.2 µM [inhibitor, single point]
COc1cccc([C@@H]2Oc3ccc(Br)cc3C(=O)[C@H]2OC(=O)Nc2ccc(OC(F)F)cc2)c1	inconclusive: 31.6 µM [inhibitor, single point]
Cc1ccc(CN2CCN(Cc3cnc(C)s3)CC2CCO)o1 (configuration not stated)	inconclusive: 39.8 µM [inhibitor, single point]
O=c1c2ccccc2n2c(-c3ccccc3F)nnc2n1CCc1ccccc1	inactive
c1ccc2c(c1)oc1c(N3CCN(Cc4ccc5c(c4)OCO5)CC3)ncnc12	inconclusive: 39.8 µM [inhibitor, single point]
